{
  "source": "the supplement of paper PMC8728848",
  "binders": {"B1": {"name": "FGFR2-Fc (protein)", "chain": "MVNVTDAISSGDDEDDTDGAEDFVSENSNNKRAPYWTNTEKMEKRLHAVPAANTVKFRCPAGGNPMPTMRWLKNGKEFKQEHRIGGYKVRNQHWSLIMESVVPSDKGNYTCVVENEYGSINHTYHLDVVERSPHRPILQAGLPANASTVVGGDVEFVCKVYSDAQPHIQWIKHVEKNGSKYGPDGLPYLKVLKHSGINSSNAEVLALFNVTEADAGEYICKVSNYIGQANQSAWLTVLPKQQAPGREKEITASPDYLETRPLEQKLISEEDLAANDILDYKDDDDKV"}},
  "assay_in_all_cases": "glycan array binding signal (z-score within array); higher = stronger binding",
  "conditions_in_all_cases": "glycan notation: IUPAC condensed, linker removed",
  "key": {"[1]": {"target": "Gal(b1-4)GlcNAc(b1-3)Gal(b1-4)GlcNAc(b1-6)[Gal(b1-3)]GalNAc", "procedure,_shortened": "(§1)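 Negative Z-scores can be read as non-binding. The Z-score is calculated within each array and then averaged across arrays of one protein sequence at different concentrations or buffers and across linkers. Arrays, 3228 in all, were curated from the Consortium for Functional Glycomics database and kept only where the protein sequence was available.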"}, "[2]": {"target": "Gal(b1-4)GlcNAc(b1-3)Gal(b1-4)[Fuc(a1-3)]GlcNAc(b1-3)Gal(b1-4)[Fuc(a1-3)]GlcNAc", "procedure,_shortened": "as §1"}, "[3]": {"target": "Gal(b1-4)GlcNAc(b1-3)GalNAc", "procedure,_shortened": "as §1"}, "[4]": {"target": "Gal(b1-4)GlcNAc(b1-3)[Fuc(a1-3)GlcNAc(b1-6)]Gal(b1-4)Glc", "procedure,_shortened": "as §1"}, "[5]": {"target": "Gal(b1-4)GlcNAc(b1-3)[Gal(b1-4)GlcNAc(b1-6)]Gal(b1-4)GlcNAc", "procedure,_shortened": "as §1"}, "[6]": {"target": "Gal(b1-4)GlcNAc(b1-3)[GlcNAc(b1-6)]Gal(b1-4)GlcNAc", "procedure,_shortened": "as §1"}, "[7]": {"target": "Gal(b1-4)GlcNAc(b1-6)Gal(b1-4)GlcNAc", "procedure,_shortened": "as §1"}, "[8]": {"target": "Gal(b1-4)GlcNAc(b1-6)GalNAc", "procedure,_shortened": "as §1"}, "[9]": {"target": "Gal(b1-4)GlcNAc(b1-6)[Gal(b1-3)]GalNAc", "procedure,_shortened": "as §1"}, "[10]": {"target": "Gal(b1-4)GlcNAc(b1-6)[Gal(b1-4)GlcNAc(b1-3)]GalNAc", "procedure,_shortened": "as §1"}, "[11]": {"target": "Gal(b1-4)GlcNAc6P", "procedure,_shortened": "as §1"}, "[12]": {"target": "Gal(b1-6)Gal", "procedure,_shortened": "as §1"}, "[13]": {"target": "Gal3S(b1-3)GalNAc", "procedure,_shortened": "as §1"}, "[14]": {"target": "Gal3S(b1-3)GlcNAc", "procedure,_shortened": "as §1"}, "[15]": {"target": "Gal3S(b1-3)[Fuc(a1-4)]GlcNAc", "procedure,_shortened": "as §1"}, "[16]": {"target": "Gal3S(b1-4)Glc", "procedure,_shortened": "as §1"}, "[17]": {"target": "Gal3S(b1-4)Glc6S", "procedure,_shortened": "as §1"}, "[18]": {"target": "Gal3S(b1-4)GlcNAc", "procedure,_shortened": "as §1"}, "[19]": {"target": "Gal3S(b1-4)[Fuc(a1-3)]Glc6S", "procedure,_shortened": "as §1"}, "[20]": {"target": "Gal3S(b1-4)[Fuc(a1-3)]GlcNAc", "procedure,_shortened": "as §1"}, "[21]": {"target": "Gal3S(b1-4)[Fuc(a1-3)]GlcNAc6S", "procedure,_shortened": "as §1"}, "[22]": {"target": "Gal3S4S(b1-4)GlcNAc", "procedure,_shortened": "as §1"}, "[23]": {"target": "Gal3S6S(b1-4)GlcNAc", "procedure,_shortened": "as §1"}, "[24]": {"target": "Gal3S6S(b1-4)GlcNAc6S", "procedure,_shortened": "as §1"}, "[25]": {"target": "Gal4S(b1-4)GlcNAc", "procedure,_shortened": "as §1"}, "[26]": {"target": "Gal4S6S(b1-4)GlcNAc", "procedure,_shortened": "as §1"}, "[27]": {"target": "Gal6P(b1-4)GlcNAc", "procedure,_shortened": "as §1"}, "[28]": {"target": "Gal6S(b1-3)GlcNAc", "procedure,_shortened": "as §1"}, "[29]": {"target": "Gal6S(b1-3)GlcNAc6S", "procedure,_shortened": "as §1"}, "[30]": {"target": "Gal6S(b1-4)Glc", "procedure,_shortened": "as §1"}, "[31]": {"target": "Gal6S(b1-4)Glc6S", "procedure,_shortened": "as §1"}, "[32]": {"target": "Gal6S(b1-4)GlcNAc", "procedure,_shortened": "as §1"}, "[33]": {"target": "Gal6S(b1-4)GlcNAc6S", "procedure,_shortened": "as §1"}, "[34]": {"target": "GalNAc(a1-3)Gal", "procedure,_shortened": "as §1"}, "[35]": {"target": "GalNAc(a1-3)GalNAc", "procedure,_shortened": "as §1"}, "[36]": {"target": "GalNAc(a1-3)GalNAc(b1-3)Gal(a1-4)Gal(b1-4)Glc", "procedure,_shortened": "as §1"}, "[37]": {"target": "GalNAc(a1-3)GalNAc(b1-3)Gal(a1-4)Gal(b1-4)GlcNAc", "procedure,_shortened": "as §1"}},
  "note": "The list shows a part of the results.",
  "data": [
    {"binder": "B1", "values": [
      {"measurement": "glycan array binding signal (z-score)", "setting": "[1]", "result": 0.362},
      {"measurement": "glycan array binding signal (z-score)", "setting": "[2]", "result": 0.128},
      {"measurement": "glycan array binding signal (z-score)", "setting": "[3]", "result": 0.027},
      {"measurement": "glycan array binding signal (z-score)", "setting": "[4]", "result": -0.139},
      {"measurement": "glycan array binding signal (z-score)", "setting": "[5]", "result": -0.674},
      {"measurement": "glycan array binding signal (z-score)", "setting": "[6]", "result": -0.277},
      {"measurement": "glycan array binding signal (z-score)", "setting": "[7]", "result": 0.09},
      {"measurement": "glycan array binding signal (z-score)", "setting": "[8]", "result": 0.447},
      {"measurement": "glycan array binding signal (z-score)", "setting": "[9]", "result": 0.229},
      {"measurement": "glycan array binding signal (z-score)", "setting": "[10]", "result": -0.073},
      {"measurement": "glycan array binding signal (z-score)", "setting": "[11]", "result": 0.573},
      {"measurement": "glycan array binding signal (z-score)", "setting": "[12]", "result": -0.771},
      {"measurement": "glycan array binding signal (z-score)", "setting": "[13]", "result": 0.111},
      {"measurement": "glycan array binding signal (z-score)", "setting": "[14]", "result": 0.343},
      {"measurement": "glycan array binding signal (z-score)", "setting": "[15]", "result": -0.152},
      {"measurement": "glycan array binding signal (z-score)", "setting": "[16]", "result": 0.236},
      {"measurement": "glycan array binding signal (z-score)", "setting": "[17]", "result": 0.012},
      {"measurement": "glycan array binding signal (z-score)", "setting": "[18]", "result": -0.089},
      {"measurement": "glycan array binding signal (z-score)", "setting": "[19]", "result": 1.35},
      {"measurement": "glycan array binding signal (z-score)", "setting": "[20]", "result": -0.04},
      {"measurement": "glycan array binding signal (z-score)", "setting": "[21]", "result": -0.045},
      {"measurement": "glycan array binding signal (z-score)", "setting": "[22]", "result": -0.708},
      {"measurement": "glycan array binding signal (z-score)", "setting": "[23]", "result": -0.096},
      {"measurement": "glycan array binding signal (z-score)", "setting": "[24]", "result": 0.72},
      {"measurement": "glycan array binding signal (z-score)", "setting": "[25]", "result": -0.328},
      {"measurement": "glycan array binding signal (z-score)", "setting": "[26]", "result": 0.876},
      {"measurement": "glycan array binding signal (z-score)", "setting": "[27]", "result": -0.234},
      {"measurement": "glycan array binding signal (z-score)", "setting": "[28]", "result": 0.1},
      {"measurement": "glycan array binding signal (z-score)", "setting": "[29]", "result": 0.179},
      {"measurement": "glycan array binding signal (z-score)", "setting": "[30]", "result": -0.195},
      {"measurement": "glycan array binding signal (z-score)", "setting": "[31]", "result": -0.39},
      {"measurement": "glycan array binding signal (z-score)", "setting": "[32]", "result": -0.179},
      {"measurement": "glycan array binding signal (z-score)", "setting": "[33]", "result": 0.231},
      {"measurement": "glycan array binding signal (z-score)", "setting": "[34]", "result": -0.191},
      {"measurement": "glycan array binding signal (z-score)", "setting": "[35]", "result": 0.149},
      {"measurement": "glycan array binding signal (z-score)", "setting": "[36]", "result": -0.248},
      {"measurement": "glycan array binding signal (z-score)", "setting": "[37]", "result": -0.267}
    ]}
  ]
}
